Data reported in the supplement of paper PMC4967469.
A lower IC50 marks a more sensitive line; a fit beyond the top or the lowest dose is shown as a bound at that dose. The AUC spans the tested range (256-fold, ending at the top dose) of the same fit; the more sensitive the line, the further below 1. The top dose, if marked as inferred, comes from the curve model; the source does not state it. For part of these data: Drugs with an entry number were screened twice under separate entries, and the two screens often disagree.

Tests used:
Experiment in all cases: Viability of human cancer cell lines after 72 h of drug (GDSC screen)
[1] = compound: NS(=O)(=O)OC[C@@H]1C[C@@H](n2ccc3c(N[C@H]4CCc5ccccc54)ncnc32)C[C@@H]1O [MLN4924]; settings: top dose 1 µM; top dose inferred
Protocol: (§1)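 Human cancer cell lines in 384-well plates, medium with 10% serum, drug for 72 h over a 256-fold dose range (nine 2-fold or five 4-fold steps up to the top dose). Adherent lines were fixed and stained with the nucleic acid dye Syto60, suspension lines read with resazurin; signal relative to control wells, capped at 0 and 100%. One two-parameter sigmoid per drug and line, fitted in a mixed model over all curves with the slope shared within a line.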

[2] = compound: Cn1ncnc1[C@H]1c2n[nH]c(=O)c3cc(F)cc(c23)N[C@@H]1c1ccc(F)cc1 [BMN-673]; settings: top dose 10 µM; top dose inferred
Protocol: as §1

[3] = compound: Cc1cc([C@@H](C)Nc2ccccc2C(=O)O)c2nc(N3CCOCC3)cc(=O)n2c1 [AZD6482]
Protocol: as §1

[4] = compound: COc1cc(C(=O)NC2CCN(C)CC2)ccc1Nc1ncc2c(n1)N(C1CCCC1)CCC(=O)N2C(C)C [XMD11-85h]; settings: top dose 10 µM; top dose inferred
Protocol: as §1

[5] = top dose 5 µM, screen: GDSC drug entry 1066, top dose inferred
[6] = top dose 5.12 µM, screen: GDSC drug entry 156

Cell Line | AUC [1] | IC50 [1] [µM] | AUC [2] | IC50 [2] [µM] | AUC [3, 5] | IC50 [3, 5] [µM] | AUC [3, 6] | IC50 [3, 6] [µM] | AUC [4] | IC50 [4] [µM]
DG-75 (Burkitt lymphoma, suspension) | 0.948 | > 1 | 0.932 | > 10 | 0.68 | 1 | 0.987 | > 5.12 | 0.878 | > 10
NCI-H1792 (lung adenocarcinoma, adherent) | 0.986 | > 1 | 0.561 | 0.899 | 0.983 | > 5 | 0.951 | > 5.12 | 0.966 | > 10
SK-PN-DW (Ewing sarcoma, adherent) | 0.943 | > 1 | 0.664 | 1.82 | 0.908 | > 5 | 0.882 | > 5.12 | 0.976 | > 10
RL (B-cell lymphoma, suspension) | 0.989 | > 1 | 0.989 | > 10 | 0.983 | > 5 | 0.99 | > 5.12 | 0.94 | > 10
HuH-7 (liver, adherent) | 0.691 | 0.214 | 0.759 | 3.49 | 0.884 | > 5 | 0.878 | > 5.12 | 0.968 | > 10
SNU-81 (large intestine, adherent) | 0.88 | > 1 | 0.98 | > 10 | 0.758 | 2.3 |  |  | 0.966 | > 10
SNU-407 (large intestine, adherent) | 0.827 | 0.757 | 0.713 | 2.79 | 0.852 | 4.91 |  |  | 0.933 | > 10
LOU-NH91 (lung squamous cell carcinoma, adherent) | 0.806 | 0.563 | 0.917 | > 10 | 0.963 | > 5 | 0.914 | > 5.12 | 0.972 | > 10
CHSA0011 (chondrosarcoma, adherent) | 0.931 | > 1 | 0.824 | 9.49 | 0.898 | > 5 | 0.945 | > 5.12 | 0.916 | > 10
NCI-H82 (small cell lung carcinoma, suspension) | 0.97 | > 1 | 0.958 | > 10 | 0.947 | > 5 | 0.99 | > 5.12 | 0.98 | > 10
OVK-18 (ovary, adherent) | 0.881 | > 1 | 0.864 | > 10 | 0.832 | 3.69 |  |  | 0.963 | > 10
MFE-296 (endometrium, adherent) | 0.68 | 0.208 | 0.636 | 1.53 | 0.943 | > 5 | 0.731 | 1.54 | 0.948 | > 10
HSC-2 (head and neck, adherent) | 0.683 | 0.194 | 0.584 | 1.04 | 0.716 | 1.21 | 0.775 | 1.87 | 0.938 | > 10
NCI-H1568 (lung adenocarcinoma, adherent) | 0.839 | 0.942 | 0.872 | > 10 | 0.862 | > 5 | 0.898 | > 5.12 | 0.938 | > 10
NCI-H1688 (small cell lung carcinoma, adherent) | 0.955 | > 1 | 0.967 | > 10 | 0.972 | > 5 | 0.98 | > 5.12 | 0.985 | > 10
NCI-H841 (small cell lung carcinoma, adherent) | 0.728 | 0.279 | 0.83 | 6.32 | 0.958 | > 5 | 0.945 | > 5.12 | 0.982 | > 10
HT-1197 (bladder, adherent) | 0.956 | > 1 | 0.86 | > 10 | 0.905 | > 5 | 0.933 | > 5.12 | 0.97 | > 10
RERF-LC-Sq1 (lung squamous cell carcinoma, adherent) | 0.798 | 0.761 | 0.929 | > 10 | 0.968 | > 5 | 0.979 | > 5.12 | 0.909 | > 10
GT3TKB (stomach, adherent) | 0.387 | 0.0318 | 0.319 | 0.21 | 0.866 | 3.6 | 0.983 | > 5.12 | 0.965 | > 10
ALL-PO (lymphoblastic leukaemia, suspension) | 0.915 | > 1 | 0.981 | > 10 | 0.74 | 1.6 | 0.925 | > 5.12 | 0.877 | > 10
RKN (ovary, adherent) | 0.73 | 0.295 | 0.637 | 1.53 | 0.859 | 4.54 | 0.943 | > 5.12 | 0.978 | > 10
ES4 (Ewing sarcoma, adherent) | 0.659 | 0.186 | 0.135 | < 0.0391 |  |  | 0.94 | > 5.12 | 0.948 | > 10
NCI-SNU-5 (stomach, suspension) | 0.943 | > 1 | 0.797 | 4.81 | 0.786 | 2.19 | 0.979 | > 5.12 | 0.987 | > 10
LAN-6 (neuroblastoma, adherent) | 0.971 | > 1 | 0.91 | > 10 | 0.947 | > 5 | 0.969 | > 5.12 | 0.955 | > 10
T-24 (bladder, adherent) | 0.754 | 0.322 | 0.47 | 0.518 | 0.886 | > 5 | 0.939 | > 5.12 | 0.986 | > 10
DMS-53 (small cell lung carcinoma, adherent) | 0.969 | > 1 | 0.752 | 3.55 | 0.934 | > 5 | 0.969 | > 5.12 | 0.975 | > 10
